From the supplement of paper PMC12217912
This is one part of the list. The full chains were built here from the parent and the listed change. Inactive controls read about 0.05.

B1: TEV protease; numbered along this chain (parent)
chain: MGESLFKGPRDYNPISSSICHLTNESDGHTTSLYGIGFGPFIITNKHLFRRNNGTLVVQSLHGVFKVKDTTTLQQHLVDGRDMIIIRMPKDFPPFPQKLKFREPQREERICLVTTNFQTKSMSSMVSDTSCTFPSGDGIFWKHWIQTKDGQCGSPLVSTRDGFIVGIHSASNFTNTNNYFTSVPKNFMELLTNQEAQQWVSGWRLNADSVLWGGHKVFMVKPEEPFQPVKEATQL

Variants of: B1
Assay: raw area under fraction-flipped curve 0-4 h after induction (AUC4h, not background-subtracted), DNA-recorder readout of cleavage of the substrate (dimensionless); higher = more cleavage of the substrate by the protease variant
Settings: temperature: 34 °C; time window: 0-4 h after rhamnose induction
Procedure: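 In vivo DNA recorder in E. coli TOP10(DE3) ΔrhaA at 34 °C. Each TEVp single-site mutant (parent TEVp 0) is paired with a single-site variant of the 7-mer TEVs (canonical ENLYFQ|S). The substrate sits between flexible linkers in a Bxb1-sfGFP-TEVs-SsrA fusion, so cleavage stabilises Bxb1 and speeds flipping of a recombination array, read by NGS. The value is the raw area under the fraction-flipped curve over 0-4 h after rhamnose induction (AUC4h), with ≥20 reads per time point. It is not background-subtracted; inactive controls average about 0.047.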
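Further: Bxb1 expression induced with 0.2% (w/v) L-rhamnose at OD600 near 0.5, cultures sampled hourly, flipped fraction per protease–substrate barcode pair counted by paired-end Illumina sequencing.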

Row | Variant | area with substrate ANLYFQS | area with substrate FNLYFQS | area with substrate HNLYFQS | area with substrate KNLYFQS | area with substrate LNLYFQS | area with substrate MNLYFQS | area with substrate NNLYFQS | area with substrate PNLYFQS | area with substrate QNLYFQS | area with substrate SNLYFQS
1 | E108Q | 0.0384 | 0.169 | 0.0593 | 0.0537 | 0.0489 | 0.0658 | 0.0541 | 0.0566 | 0.0679 | 0.0393
2 | F65A | 0.0332 | 0.067 | 0.0611 |  | 0.0591 | 0.0541 | 0.0777 | 0.0711 |  | 0.0625
3 | Y34L | 0.0837 | 0.0702 | 0.0734 |  | 0.0581 |  |  | 0.0676 |  | 0.068
4 | V57R | 0.0621 |  | 0.0717 | 0.0596 | 0.0771 |  |  | 0.086 |  | 0.0631
5 | L33K | 0.0268 |  | 0.0492 | 0.0667 |  | 0.0524 |  | 0.0685 |  | 0.0507
6 | S60T | 0.0838 | 0.0987 |  | 0.0528 |  | 0.0798 | 0.0517 | 0.0682 | 0.103 | 0.0773
7 | R102Y | 0.039 |  |  |  |  |  | 0.0695 | 0.0543 |  | 
8 | I145E | 0.0608 |  | 0.0658 |  |  |  |  | 0.0632 |  | 0.0548
9 | I145R | 0.0571 |  |  | 0.0588 |  | 0.0547 | 0.0637 |  |  | 0.0574
10 | T31Q | 0.0587 | 0.062 | 0.0476 | 0.0521 | 0.0567 | 0.067 |  |  |  | 0.0673
11 | K46N | 0.0675 |  | 0.0876 | 0.0607 |  | 0.0587 |  |  |  | 0.0589
12 | E3Y | 0.0489 |  | 0.0782 |  | 0.0878 |  | 0.0766 | 0.0504 |  | 0.0666
13 | E3N | 0.0636 |  |  | 0.0906 |  |  | 0.072 |  |  | 
14 | D79N | 0.0757 | 0.057 | 0.0521 |  | 0.0643 | 0.0521 |  | 0.068 |  | 0.0683
15 | D69G | 0.0556 |  |  |  | 0.0493 | 0.0687 |  |  |  | 
16 | F101W | 0.0699 | 0.0623 | 0.0653 |  | 0.0696 |  | 0.0754 | 0.0523 | 0.0665 | 
17 | F101N | 0.0558 | 0.0361 | 0.0515 | 0.0425 | 0.0557 | 0.0478 | 0.0422 | 0.0418 | 0.03 | 0.049
18 | K68R | 0.0395 |  |  | 0.057 | 0.0566 |  |  | 0.0553 |  | 0.0686
19 | N45L | 0.0551 | 0.0604 | 0.0557 | 0.052 | 0.0589 | 0.0546 |  | 0.0542 |  | 0.0642

Row | Variant | area with substrate ANLYFQS | area with substrate FNLYFQS | area with substrate HNLYFQS | area with substrate KNLYFQS | area with substrate LNLYFQS | area with substrate MNLYFQS | area with substrate NNLYFQS | area with substrate PNLYFQS | area with substrate QNLYFQS | area with substrate SNLYFQS
20 | N116C | 0.0621 |  | 0.0417 |  |  |  |  | 0.0481 |  | 
21 | F117L | 0.0949 |  | 0.0556 | 0.136 |  |  | 0.0665 |  |  | 0.0671
22 | R51I | 0.0605 | 0.0597 | 0.0651 | 0.0513 | 0.062 | 0.0691 |  | 0.0639 |  | 
23 | K66S | 0.0681 |  | 0.071 | 0.0573 | 0.0727 | 0.0322 |  |  |  | 
24 | G35E | 0.0432 |  | 0.0656 |  | 0.0362 |  |  | 0.0452 |  | 
25 | G35R | 0.0376 | 0.0114 |  |  |  |  |  |  |  | 0.0543
26 | G35K | 0.0499 |  |  |  |  |  |  | 0.0259 |  | 0.0432
27 | Q74S | 0.0585 | 0.0797 |  |  | 0.102 |  |  | 0.0683 |  | 0.0729
28 | T115M | 0.0399 | 0.0547 | 0.0605 | 0.075 | 0.0715 | 0.0567 | 0.0644 | 0.0484 |  | 
29 | T115G | 0.0702 |  |  |  |  |  |  |  |  | 
30 | G138H | 0.051 | 0.0594 |  | 0.0704 |  |  |  |  | 0.0531 | 
31 | G138R | 0.0611 |  | 0.0662 |  |  |  | 0.0353 | 0.078 |  | 
32 | I36P | 0.0487 | 0.031 | 0.0412 |  |  |  |  | 0.0389 |  | 0.0425
33 | S18T | 0.0748 | 0.0617 | 0.0844 | 0.0704 | 0.0606 |  | 0.0533 | 0.0712 |  | 0.0704
34 | S18N | 0.0566 | 0.0751 | 0.0471 |  | 0.098 | 0.0713 | 0.0832 | 0.12 | 0.0626 | 
35 | S18M | 0.0816 |  |  | 0.0643 |  | 0.0701 |  | 0.0575 |  | 0.0545
36 | F133G | 0.0427 | 0.0636 | 0.0673 |  | 0.0734 |  |  | 0.0699 |  | 0.0838
37 | Q75N | 0.0527 |  |  | 0.0637 | 0.0703 |  | 0.0574 |  |  | 

Same assay, conditions: temperature: 34 °C; time window: 0-4 h after rhamnose induction

Row | Variant | area with substrate TNLYFQS | area with substrate VNLYFQS | area with substrate WNLYFQS | area with substrate YNLYFQS | area with substrate INLYFQS | area with substrate GNLYFQS | area with substrate RNLYFQS | area with substrate DNLYFQS
38 | E108Q | 0.0607 | 0.0688 | 0.0585 | 0.0539 |  |  |  | 
39 | F65A | 0.0836 |  | 0.0532 |  | 0.0534 |  |  | 
40 | Y34L | 0.0651 |  |  | 0.0576 | 0.0591 | 0.0522 |  | 
41 | V57R | 0.0445 | 0.0732 |  | 0.0698 |  |  |  | 
42 | L33K | 0.0583 | 0.0571 | 0.0566 | 0.0521 | 0.0621 |  |  | 
43 | S60T | 0.0794 |  | 0.0679 | 0.0707 | 0.0783 |  |  | 
44 | R102Y |  | 0.0212 |  |  | 0.0345 |  |  | 
45 | I145E |  | 0.0534 | 0.0459 |  |  |  |  | 
46 | I145R | 0.0535 |  | 0.0426 | 0.0411 |  |  | 0.035 | 
47 | T31Q | 0.0613 |  | 0.0588 | 0.0517 |  | 0.065 | 0.0724 | 
48 | K46N | 0.0513 |  | 0.0491 | 0.0661 |  | 0.0507 |  | 
49 | E3Y |  | 0.0981 | 0.072 |  | 0.0769 | 0.0584 |  | 
50 | E3N | 0.0704 |  | 0.04 |  | 0.135 |  |  | 
51 | D79N |  |  | 0.0805 | 0.0657 |  | 0.0634 |  | 
52 | D69G | 0.0529 |  |  |  |  |  | 0.048 | 
53 | F101W | 0.078 |  | 0.0478 | 0.0483 | 0.0598 |  |  | 
54 | F101N | 0.0321 |  | 0.0501 | 0.0428 | 0.0401 |  |  | 
55 | K68R | 0.0754 | 0.078 | 0.0586 | 0.0573 | 0.0646 |  |  | 

Row | Variant | area with substrate TNLYFQS | area with substrate VNLYFQS | area with substrate WNLYFQS | area with substrate YNLYFQS | area with substrate INLYFQS | area with substrate GNLYFQS | area with substrate RNLYFQS | area with substrate DNLYFQS
56 | N45L | 0.0615 | 0.0512 | 0.0568 | 0.0586 |  |  | 0.0477 | 
57 | N116C |  | 0.0638 | 0.0404 |  |  |  |  | 
58 | F117L | 0.0597 | 0.075 | 0.0592 | 0.071 | 0.0621 | 0.0737 |  | 
59 | R51I |  |  | 0.0544 | 0.0472 |  | 0.0601 |  | 
60 | K66S |  |  | 0.0675 | 0.0548 | 0.0346 | 0.0542 |  | 
61 | G35K |  |  |  |  |  |  |  | 0.0341
62 | Q74S | 0.0584 | 0.0748 | 0.0625 | 0.0707 | 0.046 |  | 0.0498 | 0.0892
63 | T115M | 0.0838 | 0.074 | 0.0505 | 0.0535 | 0.0452 | 0.0764 | 0.0248 | 
64 | T115G |  | 0.0894 |  |  | 0.0645 | 0.108 |  | 
65 | G138H |  | 0.0363 |  |  | 0.0682 |  |  | 
66 | G138R | 0.039 |  | 0.0466 |  |  |  |  | 0.0726
67 | I36P | 0.0368 |  | 0.0415 | 0.0369 |  |  |  | 
68 | S18T |  |  | 0.0633 | 0.0545 |  | 0.0833 | 0.047 | 
69 | S18N | 0.0667 | 0.0664 | 0.0539 | 0.053 |  |  |  | 
70 | S18M | 0.0629 | 0.0675 |  | 0.0644 | 0.071 |  |  | 
71 | F133G | 0.101 | 0.101 | 0.0534 | 0.0424 |  | 0.0735 |  | 
72 | Q75N | 0.0503 |  | 0.0625 |  |  |  |  | 
